# Assay results from the supplement of paper PMC8728848.
# The list shows a part of the results.
# Legend:
# Assay in all cases: glycan array binding signal (z-score within array); higher = stronger binding
# Conditions in all cases: glycan notation: IUPAC condensed, linker removed
# [1] = biological target: Gal(b1-3)GlcNAc(b1-6)GalNAc
# Summary of the method: (§1)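 From the Consortium for Functional Glycomics database, 3228 arrays were curated, keeping only those whose protein sequence was available. Binding is given as a within-array Z-score averaged across arrays sharing a protein sequence and across linkers. Negative Z-scores can be read as non-binding.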
# [2] = biological target: Gal(b1-3)GlcNAc(b1-6)[Gal(b1-3)]GalNAc
# Summary of the method: as §1
# Gal(b1-3)GlcNAc6S = biological target: Gal(b1-3)GlcNAc6S
# Summary of the method: as §1
# [3] = biological target: Gal(b1-3)[Fuc(a1-4)]GlcNAc
# Summary of the method: as §1
# [4] = biological target: Gal(b1-3)[Fuc(a1-4)]GlcNAc(b1-2)Man
# Summary of the method: as §1
# [5] = biological target: Gal(b1-3)[Fuc(a1-4)]GlcNAc(b1-2)Man(a1-3)[Gal(b1-3)[Fuc(a1-4)]GlcNAc(b1-2)Man(a1-6)]Man(b1-4)GlcNAc(b1-4)[Fuc(a1-6)]GlcNAc
# Summary of the method: as §1
# [6] = biological target: Gal(b1-3)[Fuc(a1-4)]GlcNAc(b1-3)Gal(b1-3)[Fuc(a1-4)]GlcNAc
# Summary of the method: as §1
# [7] = biological target: Gal(b1-3)[Fuc(a1-4)]GlcNAc(b1-3)Gal(b1-4)[Fuc(a1-3)]GlcNAc
# Summary of the method: as §1
# [8] = biological target: Gal(b1-3)[Fuc(a1-4)]GlcNAc(b1-6)GalNAc
# Summary of the method: as §1
# [9] = biological target: Gal(b1-3)[GlcNAc(b1-6)]GalNAc
# Summary of the method: as §1
# [10] = biological target: Gal(b1-3)[Neu5Ac(a2-6)]GalNAc
# Summary of the method: as §1
# [11] = biological target: Gal(b1-3)[Neu5Ac(a2-6)]GlcNAc(b1-4)Gal(b1-4)Glc
# Summary of the method: as §1
# [12] = biological target: Gal(b1-3)[Neu5Ac(b2-6)]GalNAc
# Summary of the method: as §1
# Gal(b1-4)Gal = biological target: Gal(b1-4)Gal
# Summary of the method: as §1
# [13] = biological target: Gal(b1-4)GalNAc(a1-3)[Fuc(a1-2)]Gal(b1-4)GlcNAc
# Summary of the method: as §1
# [14] = biological target: Gal(b1-4)GalNAc(b1-3)[Fuc(a1-2)]Gal(b1-4)GlcNAc
# Summary of the method: as §1
# Gal(b1-4)Glc = biological target: Gal(b1-4)Glc
# Summary of the method: as §1
# Gal(b1-4)Glc6S = biological target: Gal(b1-4)Glc6S
# Summary of the method: as §1
# Gal(b1-4)GlcNAc = biological target: Gal(b1-4)GlcNAc
# Summary of the method: as §1
# [15] = biological target: Gal(b1-4)GlcNAc(a1-6)Gal(b1-4)GlcNAc
# Summary of the method: as §1
# Gal(b1-4)GlcNAc(b1-2)Man = biological target: Gal(b1-4)GlcNAc(b1-2)Man
# Summary of the method: as §1
# [16] = biological target: Gal(b1-4)GlcNAc(b1-2)Man(a1-3)Man(b1-4)GlcNAc(b1-4)GlcNAc
# Summary of the method: as §1
# [17] = biological target: Gal(b1-4)GlcNAc(b1-2)Man(a1-3)[Gal(b1-4)GlcNAc(b1-2)Man(a1-6)]Man(b1-4)GlcNAc(b1-4)GlcNAc
# Summary of the method: as §1
# [18] = biological target: Gal(b1-4)GlcNAc(b1-2)Man(a1-3)[Gal(b1-4)GlcNAc(b1-2)Man(a1-6)]Man(b1-4)GlcNAc(b1-4)[Fuc(a1-6)]GlcNAc
# Summary of the method: as §1
# [19] = biological target: Gal(b1-4)GlcNAc(b1-2)Man(a1-3)[Gal(b1-4)GlcNAc(b1-2)Man(a1-6)][Gal(b1-4)GlcNAc(b1-4)]Man(b1-4)GlcNAc(b1-4)[Fuc(a1-6)]GlcNAc
# Summary of the method: as §1
# [20] = biological target: Gal(b1-4)GlcNAc(b1-2)Man(a1-3)[Gal(b1-4)GlcNAc(b1-2)Man(a1-6)][GlcNAc(b1-4)]Man(b1-4)GlcNAc(b1-4)[Fuc(a1-6)]GlcNAc
# Summary of the method: as §1
# [21] = biological target: Gal(b1-4)GlcNAc(b1-2)Man(a1-3)[GlcNAc(b1-2)Man(a1-6)]Man(b1-4)GlcNAc(b1-4)GlcNAc
# Summary of the method: as §1
# [22] = biological target: Gal(b1-4)GlcNAc(b1-2)Man(a1-3)[GlcNAc(b1-4)][Gal(b1-4)GlcNAc(b1-2)Man(a1-6)]Man(b1-4)GlcNAc(b1-4)GlcNAc
# Summary of the method: as §1
# [23] = biological target: Gal(b1-4)GlcNAc(b1-2)Man(a1-3)[Man(a1-6)]Man(b1-4)GlcNAc(b1-4)GlcNAc
# Summary of the method: as §1
# [24] = biological target: Gal(b1-4)GlcNAc(b1-2)Man(a1-6)Man(b1-4)GlcNAc(b1-4)GlcNAc
# Summary of the method: as §1
# [25] = biological target: Gal(b1-4)GlcNAc(b1-2)Man(a1-6)[GlcNAc(b1-2)Man(a1-3)]Man(b1-4)GlcNAc(b1-4)GlcNAc
# Summary of the method: as §1
# [26] = biological target: Gal(b1-4)GlcNAc(b1-2)Man(a1-6)[Man(a1-3)]Man(b1-4)GlcNAc(b1-4)GlcNAc
# Summary of the method: as §1
# [27] = biological target: Gal(b1-4)GlcNAc(b1-2)[Gal(b1-4)GlcNAc(b1-4)]Man(a1-3)[Gal(b1-4)GlcNAc(b1-2)Man(a1-6)]Man(b1-4)GlcNAc(b1-4)GlcNAc
# Summary of the method: as §1
# [28] = biological target: Gal(b1-4)GlcNAc(b1-2)[Gal(b1-4)GlcNAc(b1-4)]Man(a1-3)[Gal(b1-4)GlcNAc(b1-2)[Gal(b1-4)GlcNAc(b1-6)]Man(a1-6)]Man(b1-4)GlcNAc(b1-4)GlcNAc
# Summary of the method: as §1
# [29] = biological target: Gal(b1-4)GlcNAc(b1-2)[Gal(b1-4)GlcNAc(b1-4)]Man(a1-3)[GlcNAc(b1-4)][Gal(b1-4)GlcNAc(b1-2)Man(a1-6)]Man(b1-4)GlcNAc(b1-4)GlcNAc
# Summary of the method: as §1
# [30] = biological target: Gal(b1-4)GlcNAc(b1-2)[Gal(b1-4)GlcNAc(b1-4)]Man(a1-3)[GlcNAc(b1-4)][Gal(b1-4)GlcNAc(b1-2)[Gal(b1-4)GlcNAc(b1-6)]Man(a1-6)]Man(b1-4)GlcNAc(b1-4)GlcNAc
# Summary of the method: as §1
# [31] = biological target: Gal(b1-4)GlcNAc(b1-2)[Gal(b1-4)GlcNAc(b1-6)]Man(a1-6)[Gal(b1-4)GlcNAc(b1-2)Man(a1-3)]Man(b1-4)GlcNAc(b1-4)GlcNAc
# Summary of the method: as §1
# [32] = biological target: Gal(b1-4)GlcNAc(b1-2)[Gal(b1-4)GlcNAc(b1-6)]Man(a1-6)[Gal(b1-4)GlcNAc(b1-2)Man(a1-3)]Man(b1-4)GlcNAc(b1-4)[Fuc(a1-6)]GlcNAc
# Summary of the method: as §1
# [33] = biological target: Gal(b1-4)GlcNAc(b1-2)[Gal(b1-4)GlcNAc(b1-6)]Man(a1-6)[GlcNAc(b1-4)][Gal(b1-4)GlcNAc(b1-2)Man(a1-3)]Man(b1-4)GlcNAc(b1-4)GlcNAc
# Summary of the method: as §1
# [34] = biological target: Gal(b1-4)GlcNAc(b1-2)[Gal(b1-4)GlcNAc(b1-6)]Man(a1-6)[GlcNAc(b1-4)][Gal(b1-4)GlcNAc(b1-2)[Gal(b1-4)GlcNAc(b1-4)]Man(a1-3)]Man(b1-4)GlcNAc(b1-4)[Fuc(a1-6)]GlcNAc
# Summary of the method: as §1
# [35] = biological target: Gal(b1-4)GlcNAc(b1-3)Gal(b1-3)GalNAc
# Summary of the method: as §1
# [36] = biological target: Gal(b1-4)GlcNAc(b1-3)Gal(b1-3)GlcNAc
# Summary of the method: as §1
# [37] = biological target: Gal(b1-4)GlcNAc(b1-3)Gal(b1-4)Glc
# Summary of the method: as §1
# [38] = biological target: Gal(b1-4)GlcNAc(b1-3)Gal(b1-4)GlcNAc
# Summary of the method: as §1
# [39] = biological target: Gal(b1-4)GlcNAc(b1-3)Gal(b1-4)GlcNAc(b1-2)Man(a1-3)[Gal(b1-4)GlcNAc(b1-3)Gal(b1-4)GlcNAc(b1-2)Man(a1-6)]Man(b1-4)GlcNAc(b1-4)GlcNAc
# Summary of the method: as §1
binder,measurement,setting,value
"MSMEG3662-2a (Mycobacterium smegmatis), A0QYH7_MYCS2 (protein) MGDTLTAGQKLERGGSLQSGNGAYTLTLQDDGNLVLYARDKAVWSTGTNGQDVVRAEVQTDGNFVLYTAEKPVWHTDTKGKKEVKLVLQDDRNLVLYAKDGPAWSSKTDTTEPPPPAPEPEKEAEVAPAAAEEAAPAPVAEPAPAEPAPAAPPPAPPAPRTYTVVSGDTLWAIAERFYGDGSKYQQIADASGIANPDLIHPGQVLTIP",glycan array binding signal (z-score),[1],-0.129
same,glycan array binding signal (z-score),[2],-0.135
same,glycan array binding signal (z-score),Gal(b1-3)GlcNAc6S,-0.125
same,glycan array binding signal (z-score),[3],-0.12
same,glycan array binding signal (z-score),[4],-0.109
same,glycan array binding signal (z-score),[5],-0.061
same,glycan array binding signal (z-score),[6],-0.162
same,glycan array binding signal (z-score),[7],0.029
same,glycan array binding signal (z-score),[8],-0.111
same,glycan array binding signal (z-score),[9],0.02
same,glycan array binding signal (z-score),[10],-0.105
same,glycan array binding signal (z-score),[11],-0.186
same,glycan array binding signal (z-score),[12],0.064
same,glycan array binding signal (z-score),Gal(b1-4)Gal,0.013
same,glycan array binding signal (z-score),[13],-0.098
same,glycan array binding signal (z-score),[14],-0.151
same,glycan array binding signal (z-score),Gal(b1-4)Glc,-0.09
same,glycan array binding signal (z-score),Gal(b1-4)Glc6S,0.057
same,glycan array binding signal (z-score),Gal(b1-4)GlcNAc,-0.102
same,glycan array binding signal (z-score),[15],-0.067
same,glycan array binding signal (z-score),Gal(b1-4)GlcNAc(b1-2)Man,-0.01
same,glycan array binding signal (z-score),[16],-0.081
same,glycan array binding signal (z-score),[17],-0.067
same,glycan array binding signal (z-score),[18],-0.059
same,glycan array binding signal (z-score),[19],-0.072
same,glycan array binding signal (z-score),[20],-0.072
same,glycan array binding signal (z-score),[21],0.07
same,glycan array binding signal (z-score),[22],-0.149
same,glycan array binding signal (z-score),[23],0.104
same,glycan array binding signal (z-score),[24],-0.075
same,glycan array binding signal (z-score),[25],-0.049
same,glycan array binding signal (z-score),[26],0.038
same,glycan array binding signal (z-score),[27],-0.157
same,glycan array binding signal (z-score),[28],-0.118
same,glycan array binding signal (z-score),[29],-0.117
same,glycan array binding signal (z-score),[30],-0.186
same,glycan array binding signal (z-score),[31],-0.131
same,glycan array binding signal (z-score),[32],-0.001
same,glycan array binding signal (z-score),[33],-0.097
same,glycan array binding signal (z-score),[34],-0.039
same,glycan array binding signal (z-score),[35],-0.046
same,glycan array binding signal (z-score),[36],-0.037
same,glycan array binding signal (z-score),[37],-0.134
same,glycan array binding signal (z-score),[38],-0.073
same,glycan array binding signal (z-score),[39],0.056
